# Results as given in the supplement of paper PMC8728848.
# The list shows a part of the results.
# B1: PitA (Streptococcus oralis), G3F8D8 (protein)
# chain: MNIRFDFKKVQIIARRLVTLLAILFLCAPISLLNADSTTEPQTTLHKTITPISGQDDKYELSLDITSKLGTETQTDPLDVVLVADLSGSMQNQDVQSFDGRTISRIDALKNTLRGTNGRKGLIDTILSNSNNRLSMVGFGGKIDNKKVDQYWDGNKWRLFRPYWPYERMTKYYDGVSPWDDANTILGWSNNARAAKTAVYNMSIAGGNSIGTESGIGTGTNIGAGLTLANQLMGSARSNAKKVVILLSDGFANMVYDANGYTIYNYNNEDPNIETAPQWFWDRLNNNLNSLSYSLAPTLDGFYSIKFRYSNNVDSITSLQYYMRQHNASIPNEIFSANDEDQLRDSFKDITDKILPLGIHHVSIKDVLSKYVQLLPNGSSEFRVVKEKDGSSEILIENQVTFDTKTTSEGLVEVTAKFSPNYSLEDGARYVLKFTVTSSQEALDAIAGDKKLEAGDAEGSDVNKLYSNKGASVTYSYGIGNSQTKTKEYSDNPTFKPSDPLTVPVEVEWQGVTGARTVITADQPSNVELKLVQKNKNGGSDNQDYRKTNVNVSKNVSNETRNFEKVAKGYQYDLIAPDVPAFTKEIKNVGTESKPSFKVIYKQLPSLTIKKVLEAENNLNKEFRIKVKLTSPDSKPLNGTFGEITVVNGEAEIRVEKRKRWEGILSYLPRGTHYKVEEEAASTNGYHVTYENQEGDLNKDETSIVTNHKLPSLSVTKKVTGVFANLLKSFKITINIRDAQNSPLNGTYTATVNNKRTPLQFTNGRASIDLNKDQTIKIYGLPLDSHYTVEEESNSSRGYQVSYENQEGKLDGDKSATVTNNKNSVPETGVDFLSSTLMLGIILPLGGIFFTILLGYLVVHRRK
# Key:
# Assay in all cases: glycan array binding signal (z-score within array); higher = stronger binding
# Conditions in all cases: glycan notation: IUPAC condensed, linker removed
# Gal3S4S(b1-4)GlcNAc = target: Gal3S4S(b1-4)GlcNAc
# Method in brief: (§1)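 From the Consortium for Functional Glycomics database, 3228 arrays were curated, keeping only those whose protein sequence was available. Binding is given as a within-array Z-score averaged across arrays sharing a protein sequence and across linkers. Negative Z-scores can be read as non-binding.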
# Gal3S6S(b1-4)GlcNAc = target: Gal3S6S(b1-4)GlcNAc
# Method in brief: as §1
# Gal3S6S(b1-4)GlcNAc6S = target: Gal3S6S(b1-4)GlcNAc6S
# Method in brief: as §1
# Gal4S(b1-4)GlcNAc = target: Gal4S(b1-4)GlcNAc
# Method in brief: as §1
# Gal4S6S(b1-4)GlcNAc = target: Gal4S6S(b1-4)GlcNAc
# Method in brief: as §1
# Gal6P(b1-4)GlcNAc = target: Gal6P(b1-4)GlcNAc
# Method in brief: as §1
# Gal6S(b1-3)GlcNAc = target: Gal6S(b1-3)GlcNAc
# Method in brief: as §1
# Gal6S(b1-3)GlcNAc6S = target: Gal6S(b1-3)GlcNAc6S
# Method in brief: as §1
# Gal6S(b1-4)Glc = target: Gal6S(b1-4)Glc
# Method in brief: as §1
# Gal6S(b1-4)Glc6S = target: Gal6S(b1-4)Glc6S
# Method in brief: as §1
# Gal6S(b1-4)GlcNAc = target: Gal6S(b1-4)GlcNAc
# Method in brief: as §1
# Gal6S(b1-4)GlcNAc6S = target: Gal6S(b1-4)GlcNAc6S
# Method in brief: as §1
# GalNAc(a1-3)Gal = target: GalNAc(a1-3)Gal
# Method in brief: as §1
# GalNAc(a1-3)GalNAc = target: GalNAc(a1-3)GalNAc
# Method in brief: as §1
# [1] = target: GalNAc(a1-3)GalNAc(b1-3)Gal(a1-4)Gal(b1-4)Glc
# Method in brief: as §1
# [2] = target: GalNAc(a1-3)GalNAc(b1-3)Gal(a1-4)Gal(b1-4)GlcNAc
# Method in brief: as §1
# GalNAc(b1-3)Gal = target: GalNAc(b1-3)Gal
# Method in brief: as §1
# [3] = target: GalNAc(b1-3)Gal(a1-4)Gal(b1-4)GlcNAc
# Method in brief: as §1
# [4] = target: GalNAc(b1-3)Gal(a1-4)Gal(b1-4)GlcNAc(b1-3)Gal(b1-4)Glc
# Method in brief: as §1
# [5] = target: GalNAc(b1-3)Gal(a1-6)Gal(b1-4)Glc
# Method in brief: as §1
# GalNAc(b1-3)GalNAc = target: GalNAc(b1-3)GalNAc
# Method in brief: as §1
# GalNAc(b1-4)Gal(b1-4)Glc = target: GalNAc(b1-4)Gal(b1-4)Glc
# Method in brief: as §1
# GalNAc(b1-4)GlcNAc = target: GalNAc(b1-4)GlcNAc
# Method in brief: as §1
# [6] = target: GalNAc(b1-4)GlcNAc(b1-2)Man(a1-3)[GalNAc(b1-4)GlcNAc(b1-2)Man(a1-6)]Man(b1-4)GlcNAc(b1-4)GlcNAc
# Method in brief: as §1
# GalNAc(b1-4)GlcNAc6S = target: GalNAc(b1-4)GlcNAc6S
# Method in brief: as §1
# GalNAc(b1-6)GalNAc = target: GalNAc(b1-6)GalNAc
# Method in brief: as §1
# GalNAc3S(b1-4)GlcNAc = target: GalNAc3S(b1-4)GlcNAc
# Method in brief: as §1
# GalNAc3S(b1-4)GlcNAc3S = target: GalNAc3S(b1-4)GlcNAc3S
# Method in brief: as §1
# GalNAc4S6S(b1-4)GlcNAc = target: GalNAc4S6S(b1-4)GlcNAc
# Method in brief: as §1
# GalNAc6S(b1-4)GlcNAc = target: GalNAc6S(b1-4)GlcNAc
# Method in brief: as §1
binder,measurement,setting,value
B1,glycan array binding signal (z-score),Gal3S4S(b1-4)GlcNAc,-0.651
same,glycan array binding signal (z-score),Gal3S6S(b1-4)GlcNAc,-0.371
same,glycan array binding signal (z-score),Gal3S6S(b1-4)GlcNAc6S,-0.354
same,glycan array binding signal (z-score),Gal4S(b1-4)GlcNAc,-0.568
same,glycan array binding signal (z-score),Gal4S6S(b1-4)GlcNAc,0.317
same,glycan array binding signal (z-score),Gal6P(b1-4)GlcNAc,-0.275
same,glycan array binding signal (z-score),Gal6S(b1-3)GlcNAc,-0.368
same,glycan array binding signal (z-score),Gal6S(b1-3)GlcNAc6S,1.48
same,glycan array binding signal (z-score),Gal6S(b1-4)Glc,-0.151
same,glycan array binding signal (z-score),Gal6S(b1-4)Glc6S,0.39
same,glycan array binding signal (z-score),Gal6S(b1-4)GlcNAc,-0.419
same,glycan array binding signal (z-score),Gal6S(b1-4)GlcNAc6S,0.441
same,glycan array binding signal (z-score),GalNAc(a1-3)Gal,0.065
same,glycan array binding signal (z-score),GalNAc(a1-3)GalNAc,-0.516
same,glycan array binding signal (z-score),[1],-0.395
same,glycan array binding signal (z-score),[2],-0.47
same,glycan array binding signal (z-score),GalNAc(b1-3)Gal,-0.695
same,glycan array binding signal (z-score),[3],-0.339
same,glycan array binding signal (z-score),[4],0.654
same,glycan array binding signal (z-score),[5],-0.44
same,glycan array binding signal (z-score),GalNAc(b1-3)GalNAc,-0.488
same,glycan array binding signal (z-score),GalNAc(b1-4)Gal(b1-4)Glc,0.365
same,glycan array binding signal (z-score),GalNAc(b1-4)GlcNAc,-0.306
same,glycan array binding signal (z-score),[6],-0.627
same,glycan array binding signal (z-score),GalNAc(b1-4)GlcNAc6S,-0.446
same,glycan array binding signal (z-score),GalNAc(b1-6)GalNAc,-0.59
same,glycan array binding signal (z-score),GalNAc3S(b1-4)GlcNAc,-0.562
same,glycan array binding signal (z-score),GalNAc3S(b1-4)GlcNAc3S,-0.375
same,glycan array binding signal (z-score),GalNAc4S6S(b1-4)GlcNAc,-0.499
same,glycan array binding signal (z-score),GalNAc6S(b1-4)GlcNAc,0.019
